# Experimental data reported in PubChem BioAssay AID651820 (National Center for Advancing Translational Sciences (NCATS), 2012).
# Screen size: about 340,000 compounds; about 12,000 (3.5%) were called active. Inconclusive results, whose numbers are uncertain, are shown with a selection of clear calls. The call rests on the fitted dose curve; in most records, active means well fitted inhibition curve with a large enough effect; inconclusive means small, poorly fitted or top-dose-only effect, or another doubt; inactive means no such curve, though single readings can be large or run the other way. No potency is given beside an inconclusive call; the fits are too rough.
# Experiment: qHTS Assay for Inhibitors of Hepatitis C Virus (HCV)
# Details: Huh7.5.1 HCVcc-Cre (HCVcc is cell-culture hepatitis C virus) infection, luciferase reporter, 44 h; activity change, negative = inhibition: at 41.8 µM (top of the series)
# In short: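 Luciferase read-out (15 sec integration) after a 15 min room-temperature substrate step quantifies HCVcc-Cre infection. Cells, 1,000 per well, had compound added 4 h post-plating, then virus at ~0.5 moi, and were cultured 44 h.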
# On the % scale 0 is the no-effect control and ±100 the full control effect; potency means the concentration at half of the fitted maximal effect; tags describe the fitted curve by direction and shape.
SMILES,Potency,"activity change, negative = inhibition"
Nc1cc(S(=O)(=O)N2CCOCC2)ccc1Oc1ccc(F)cc1,"inconclusive [inhibitor, single point]",
NC(=O)NC(=O)COC(=O)CCCSc1nc2ccccc2s1,,inactive: 22.4%
COc1ccc2oc(C(=O)OC(C)C(=O)N(C)c3ccccc3)c(C)c2c1 (stereo unspecified),"inconclusive [inhibitor, full curve, poor fit]",
O=[N+]([O-])c1ccc(N2CCN(Cc3cccc([N+](=O)[O-])c3)CC2)cc1,"inconclusive [inhibitor, single point]",
COc1ccc(C(NCC(=O)NC(C)c2ccc(Cl)cc2)c2ccccc2)cc1 (stereo unspecified),active: 11.2 µM,
COC(=O)c1ccccc1NC(=O)COC(=O)c1ccc(C)c(NC(=O)c2ccco2)c1,"inconclusive [inhibitor, single point]",
O=S(=O)(Nc1ccc(N2CCOCC2)cc1)c1ccc(F)cc1F,,inactive: 20.7%
CC(Oc1ccccc1)C(=O)Nc1ccc(S(=O)(=O)N2CCOCC2)cc1 (stereo unspecified),,inactive: 1.8%
CCCOc1c(Br)cc(C(=O)OCc2cc(=O)n3ccsc3n2)cc1OC,"inconclusive [inhibitor, single point]",
CC1CCCN(CCCNC(=O)CCn2nc(-c3ccccc3)ccc2=O)C1 (stereo unspecified),"inconclusive [inhibitor, single point]",
Cc1cc(NC2CCCCC2)nc2ccccc12,"inconclusive [inhibitor, single point]",
COc1ccc(Cl)cc1NC(=O)c1cccc(-n2cnnn2)c1,active: 10 µM,
O=C(N/N=C/c1cc(Br)ccc1OC(=O)c1ccc(Br)cc1)c1ccncc1,active: 3.16 µM,
Cc1ccc(CNC(=O)c2nn(C)c3c2CS(=O)(=O)c2ccccc2-3)cc1,,inactive: -24.8%
O=c1ccc(-c2ccc(S(=O)(=O)Nc3cccc(Br)c3)o2)n[nH]1,,inactive: 27%
O=C(COc1ccc(Cl)cc1)Nc1cc(S(=O)(=O)N2CCCCC2)ccc1N1CCCCC1,"inconclusive [inhibitor, partial curve]",
Cc1cccc2cc(CNC3CCCC3)c(Cl)nc12,"inconclusive [inhibitor, single point]",
O=C(NCC(c1ccco1)N1CCc2ccccc21)c1cccc([N+](=O)[O-])c1 (stereo unspecified),,inactive: -22.5%
CC1CC(C)CN(CC(O)COc2ccc3c(c2)CCC3)C1 (stereo unspecified),"inconclusive [inhibitor, partial curve]",
CC1(c2ccccc2)NC(=O)N(CC(=O)Nc2cc3c(cc2Br)OCCO3)C1=O (stereo unspecified),"inconclusive [inhibitor, partial curve]",
CC(=O)n1c(C=Nc2ccc(Cl)cc2)c(O)c2ccccc21,"inconclusive [inhibitor, single point]",
CP(=O)(Nc1ccc(Cl)cc1)c1nc2c(s1)CCCC2 (stereo unspecified),"inconclusive [inhibitor, single point]",
Nc1c(Cl)cc(-c2csc(NCCc3nc4cc(Cl)c(Cl)cc4n3CCCO)n2)cc1Cl,"inconclusive [inhibitor, full curve, poor fit]",
CCCCN(C)C(=O)C1CCN(CCCc2ccccc2)CC1,,inactive: 3.41%

SMILES,Potency,"activity change, negative = inhibition"
C(=N\Nc1nc(-c2ccccc2)cs1)/c1cccnc1,"inconclusive [inhibitor, single point]",
C/C(=N\OCc1ccc(C#N)cc1)c1ccc(S(=O)(=O)N(C)C)cc1,"inconclusive [inhibitor, single point]",
Cc1ccccc1OCCOc1ccc([N+](=O)[O-])cc1/C=N/n1cnnc1,"inconclusive [inhibitor, single point]",
Cc1ccc(NC(=O)C2CCN(c3ncnc4c3nc3n4CCCCC3)CC2)nc1,active: 12.6 µM,
Cc1cccc(NS(=O)(=O)c2ccc(C(=O)N3CCCC3)cc2)c1C,,inactive: 3.85%
Cn1c(=O)c2c(nc(NCC3CCCC(CN)C3)n2Cc2ccc(Cl)cc2Cl)n(C)c1=O (stereo unspecified),active: 11.2 µM,
CCN(CC)S(=O)(=O)c1ccc(C)c(NC(=O)CSc2nc3ccccc3[nH]2)c1,"inconclusive [inhibitor, partial curve]",
COc1ccc(CC(=O)Nc2cccc(-c3ccc4nncn4n3)c2)cc1OC,"inconclusive [inhibitor, partial curve]",
COc1ccc(NS(=O)(=O)c2cc(N)ccc2N2CCCC2)cc1,"inconclusive [inhibitor, partial curve]",
COc1ccc(-c2cn(-c3ccc(C)c(C)c3)c(=S)[nH]2)cc1OC,"inconclusive [inhibitor, single point]",
C#Cc1cccc(C(=O)N2CCCC(C(=O)c3ccc(OC)cc3C)C2)c1 (stereo unspecified),,inactive: 8.48%
CCOC(=O)c1c(C)[nH]c(C(=O)OCC(=O)N2CCN(S(=O)(=O)c3ccc(C)cc3C)CC2)c1C,active: 14.1 µM,
CCCCn1c(N)c(N(CCOC)C(=O)COC(=O)COc2cc(C)c(Cl)cc2C(C)C)c(=O)[nH]c1=O,"inconclusive [inhibitor, full curve]",
CN(Cc1ccccc1)Cc1nc2c(c(=O)n(C)c(=O)n2C)n1CCCc1ccccc1,"inconclusive [inhibitor, partial curve]",
O=C(CCl)Nc1cccc(S(=O)(=O)NC2=NCCC2)c1,active: 12.6 µM,
N#CC1=C(N)NC(=S)C(C(N)=O)C1c1ccc(Cl)cc1Cl (stereo unspecified),"inconclusive [inhibitor, single point]",
CC(NC(=O)Nc1ccc(Cl)c(Cl)c1)C(c1ccccc1)N1CCOCC1 (stereo unspecified),"inconclusive [inhibitor, single point]",
Cc1sc(NC(=O)Cn2[nH]c(=O)c3ccccc3c2=O)nc1-c1ccccc1,"inconclusive [inhibitor, single point]",
CCCn1cc(SCC(=O)NCc2ccc3c(c2)OCO3)c2ccccc21,"inconclusive [inhibitor, partial curve]",
O=Cc1ccc(C(=O)OCC(=O)NCCC2=CCCCC2)cc1,,inactive: 10.5%
CCn1c2ccccc2c2cc(CN3CCN(Cc4cc(OC)ccc4O)CC3)ccc21,"inconclusive [inhibitor, single point]",
O=C(Nc1ccc(N2CCOCC2)cc1)c1cccc(S(=O)(=O)N2CCCC2)c1,active: 6.31 µM,
CCOc1ccc(-n2c(N)c(-c3nc4ccccc4n3C)c3nc4ccccc4nc32)cc1,,inactive: 24.3%
O=c1[nH][nH]c(-c2ccccc2O)c1C(C[N+](=O)[O-])c1ccc(Br)cc1 (stereo unspecified),"inconclusive [inhibitor, full curve, poor fit]",

SMILES,Potency,"activity change, negative = inhibition"
CCCNC(=O)C1CC2Cn3c(nc4ccccc43)C2N1C (stereo unspecified),,inactive: 15.2%
Cc1nn(Cc2ccc(Cl)cc2)c(C)c1NC(=O)c1noc2c1CCCCC2,"inconclusive [inhibitor, single point]",
CC(=O)c1nc2ccccc2n1S(=O)(=O)c1ccc(C)cc1,,inactive: 1.86%
O=C(CSc1nncs1)NCc1ccc(F)cc1,,inactive: 5.33%
COCCn1c(-c2ccc(OC)cc2)c(-c2ccc(OC)cc2)oc1=O,,inactive: -0.174%
CC1CCN(CC(=O)Nc2ccc(N3CCCCCC3)cc2)CC1,"inconclusive [inhibitor, full curve]",
O=C(CN1CCC(c2nc3ccccc3s2)CC1)NCc1ccccc1,"inconclusive [inhibitor, single point]",
COc1ccc(-n2nnc3c(=O)n(CC(=O)N4CCCc5ccccc54)cnc32)cc1,"inconclusive [inhibitor, single point]",
Cc1ccc2c(c1)nnn2C1CCN(S(=O)(=O)c2cccc(S(=O)(=O)N(C)C)c2)CC1,active: 10 µM,
O=C(c1ccco1)N(CCC(c1ccccc1)c1ccco1)Cc1ccc(F)cc1 (stereo unspecified),"inconclusive [inhibitor, partial curve]",
N#Cc1c(-c2cccs2)cc(-c2ccccn2)nc1N,"inconclusive [inhibitor, partial curve]",
O=C(Nc1ccccc1)Nc1cc(Cl)cc(Cl)c1,"inconclusive [inhibitor, single point]",
CCOC(=O)c1[nH]c(C)c(CN(CCc2ccccc2)S(C)(=O)=O)c1C,"inconclusive [inhibitor, single point]",
COC(=O)C1(C)NC(=O)c2ccccc2N1 (stereo unspecified),,inactive: 0.652%
Oc1cccc2ccc(/C=C/c3c(F)cccc3Cl)nc12,active: 11.2 µM,
Cn1cc(CN2CCCC(CO)(Cc3ccccc3)C2)c2ccccc21 (stereo unspecified),"inconclusive [inhibitor, partial curve]",
Cc1nnc(NC(=O)CCS(=O)(=O)c2ccccc2)s1,,inactive: -22.6%
O=C(NC(NC(=S)Nc1ccc(Cl)cc1Cl)C(Cl)(Cl)Cl)c1cccc([N+](=O)[O-])c1 (stereo unspecified),"inconclusive [inhibitor, single point]",
Cc1c(NC(=O)c2ccc([N+](=O)[O-])o2)cccc1-c1nc2ncccc2o1,"inconclusive [inhibitor, single point]",
O=C(Nc1nc(=S)ss1)c1ccc(Cl)cc1Cl,,inactive: 7.94%
C/C(=N/NC(=O)c1ccncc1)c1ccc(NC(=O)c2ccc(Cl)cc2Cl)cc1,,inactive: -2.38%
Oc1ccc(Nc2nc3ccccc3nc2Nc2ccc(O)cc2)cc1,"inconclusive [inhibitor, single point]",
Cc1nc2ccccc2nc1OCC(=O)Nc1cc(C(F)(F)F)ccc1N1CCOCC1,"inconclusive [inhibitor, single point]",
